# The supplement of paper PMC10986608
# This is one part of the list. Repeats are few or missing, and single values can be far off.
# Test system: Candida albicans DPL-15
# Experiment: growth (OD600) after compound treatment (apparently relative to screen median) (relative growth (fraction; screen median 1.02)); DPL-15 is a caspofungin-resistant clinical isolate; higher = more fungal growth (less antifungal activity)
# Conditions: 25 µM; RPMI 1640; 48 h; 30 °C
row,Structure (SMILES),growth
1,CCN1C(=S)NC(c2ccccc2F)C(C(=O)OC)=C1C (stereo not drawn),1.14
2,COc1cc(O)c(C(=O)[C@@H]2CC=C(CCC=C(C)C)C[C@H]2c2ccsc2)c(O)c1,1.07
3,COc1ccc(N2C(=O)c3c(c(CC(C)C)nn3C)C2c2ccc(F)cc2)cc1 (stereo not drawn),0.854
4,C=CCCCCc1cc2cc(OC)cc(OC)c2c(=O)o1,1.05
5,CC(C)c1c2c(nn1-c1ccc(OC(F)(F)F)cc1)C(=O)NC2c1cccc(C(F)(F)F)c1 (stereo not drawn),0.953
6,COc1cc(F)ccc1C1c2c(CC(C)C)n[nH]c2C(=O)N1c1ccc(Br)cc1 (stereo not drawn),1.01
7,Brc1ccc(/C=C/c2cc(/C=C/c3ccc(Br)cc3)[nH]n2)cc1,1.01
8,COCOc1cccc2c(OC)c(C3=C(CO[Si](C)(C)C(C)(C)C)[C@@H](OC(C)=O)[C@@]4(C)O[C@H]4[C@H]3OC(C)=O)cc(OC)c12,0.939
9,O=c1c2ccccc2oc2cc(CC3OCCO3)cc(O)c12,1.07
10,CC(C)(C)NS(=O)(=O)N(CCC1CCCCC1)C(=O)OC(C)(C)C,1.12
11,C[C@H](OS(=O)(=O)NC(C)(C)C)C1CC[C@H]2[C@@H]3CCC4=CC(=O)CC[C@]4(C)[C@H]3CC[C@]12C (stereo partly drawn),1.06
12,COC(=O)[C@H](Cc1ccccc1)N[C@H](c1ccc(OC)cc1)[C@@H](O)Cc1ccccc1,1.1
13,COc1ccc(N2C(=O)c3[nH]nc(CC(C)C)c3C2c2ccc(F)cn2)cc1 (stereo not drawn),1.16
14,COC(=O)[C@]1([C@@H]2OC(=O)C[C@@H]2C)CC(=O)c2c(O)ccc(Br)c2O1,1
15,CC(=O)O[C@@H]1C[C@@]23CC[C@@H]4[C@](C)(COS(=O)(=O)NC(C)(C)C)CCC[C@@]4(C)[C@@H]2CC[C@]1(C)C3,1
16,CCCCCCN(C(=O)OC(C)(C)C)S(=O)(=O)NC(C)(C)C,1.04
17,CCOC(=O)C1=C(C)NC(=O)NC1c1ccccc1 (stereo not drawn),1.09
18,COc1cc(C)cc2c1-c1c(c(OC)c3c(OC)cccc3c1OC)C2=O,1.13
19,CC(C)C1=NCCNC2=C1C(c1ccc(F)cc1)N(Cc1ccccc1)C2=O (stereo not drawn),0.901
20,CC(C)CC1=NCC(C)(C)NC2=C1C(c1ccc(Br)cc1)NC2=O (stereo not drawn),0.998
21,C#CCC(C)(C)CNC(=O)CC1(CNC(=O)c2cccc(/C=N/NS(=O)(=O)c3ccc(C)cc3)n2)CCCCC1,1.16

row,Structure (SMILES),growth
1,COC(=O)c1[nH]c2ccc(OC)cc2c1[C@]12CCN(C(=O)Cc3ccc4c(c3)OCO4)[C@H]1Nc1ccccc12,0.914
2,CC(C)CCNS(=O)(=O)NC(C)(C)C,1.17
3,COC(=O)C1=C(C)N(Cc2ccccc2)C(NCc2ccccc2)=N[C@H]1c1ccccc1,0.933
4,Cc1cc2c(nc1C)CCCN2S(=O)(=O)c1ccc(F)cc1,0.927
5,COc1ccccc1N1C(=O)c2[nH]nc(CC(C)C)c2C1c1ccccc1Br (stereo not drawn),1.11
6,CC(C)Cc1n[nH]c2c1C(c1ccc3c(c1)OCO3)NC2=O (stereo not drawn),0.946
7,COc1ccc([C@@]23Oc4cc(OC)cc(OC)c4[C@]2(O)[C@@H](O)[C@H](C(=O)c2ccco2)[C@H]3c2ccccc2)cc1,0.951
8,CC(=O)C1=C(C)N(Cc2ccccc2)C(=O)NC1c1ccc(Cl)cc1 (stereo not drawn),0.972
9,COc1ccccc1Cn1nc(C(C)C)c2c1C(=O)NC2c1ccccc1 (stereo not drawn),0.898
10,COC(=O)C1=C(C)N(Cc2cccc(F)c2)C(=S)NC1c1cccc(Br)c1 (stereo not drawn),0.993
11,COc1ccc([C@]23OCC[C@H]2[C@H]2OC(=O)c4c(O)cc(C)c5c(O)cc(c2c45)O3)cc1,1.06
12,Cc1ccccc1S(=O)(=O)N1CCCc2nc(-c3ccccc3)ccc21,0.941
13,CCOC(=O)C1=C(C)NC(=O)NC1c1cc(OC)c(OC)c(OC)c1 (stereo not drawn),1.25
14,CC(C)c1c2c(nn1Cc1ccccc1)C(=O)NC2c1ccccc1 (stereo not drawn),0.96
15,CCOC(=O)C1CCCN(CCc2ccccn2)C1 (stereo not drawn),1.09
16,CCc1ccc(N2C(=O)c3[nH]nc(CC(C)C)c3C2c2ccc(F)cc2)cc1 (stereo not drawn),0.971
17,COC(=O)[C@H]1[C@H](C(=O)OC)[C@@H](c2ccc3c(c2)OCO3)[C@@H]1c1ccc2c(c1)OCO2,1.04
18,COC(=O)c1nnc(C=O)c2c1[nH]c1ccccc12,1.03
19,CC1=NCCNC2=C1C(c1ccc(F)cc1)NC2=O (stereo not drawn),1.1
20,C=C(C)C1[C@H](c2cc(O)c(O)c3oc4cc(O)cc(O)c4c(=O)c23)C=C(C)C[C@H]1c1cc(O)c(O)c2oc3cc(O)cc(O)c3c(=O)c12 (stereo partly drawn),active: 0.0122
21,C=CCC[C@@H](O)COc1cc2c(cc1C1(c3cc4c(cc3OC[C@H](O)CCC=C)OCO4)C(=O)Nc3cc(F)ccc31)OCO2,1.08

row,Structure (SMILES),growth
1,CC(C)[C@@H]1NC(=O)CCCCOC(=O)C/C=C/[C@H](C)[C@H](c2ccccc2)NC1=O,1
2,COc1ccc(N2C(=O)c3[nH]nc(CC(C)C)c3[C@@H]2c2ccc(F)cc2)cc1,1.07
3,COc1ccc(-c2nc3c(c4c2C[C@H](C)OC4)CN(Cc2cc(OC)c(OC)c(OC)c2)CC3)cc1,0.93
4,CCc1ccccc1-n1nc(C)c2c1C(=O)NC2c1ccc(Br)cc1 (stereo not drawn),1.01
5,COCCN1C(=S)NC(c2ccc(C(F)(F)F)cc2)C(C(=O)OC)=C1C (stereo not drawn),1.27
6,COc1ccc(N2C(=O)c3[nH]nc(CC(C)C)c3C2c2ccccc2F)cc1 (stereo not drawn),1.08
7,COC(=O)C/C=C/[C@@H](C)[C@H](NC(=O)[C@@H](CC(C)C)NC(=O)OC(C)(C)C)c1ccccc1,1.07
8,CC1=C[C@@H](COc2cccc(F)c2)O[C@@]2(C1)C(=O)Nc1c(F)cccc12,0.938
9,COc1ccc2c(=O)c3ccccc3oc2c1OCC=C(C)C,1.11
10,C=CCOC(=O)/C=C/NC(=O)c1ccccc1,1.07
11,CCOC(=O)[C@@]1([C@@H](NC(=O)OC)c2cccc(F)c2)CCCC1=O,0.965
12,CC(C)C1=NCCN(C)C2=C1C(c1ccc(F)cc1)N(Cc1ccccc1)C2=O (stereo not drawn),0.977
13,Cc1ccc(C2NC(=O)c3nn(-c4ccc(OC(F)(F)F)cc4)c(C(C)C)c32)cc1 (stereo not drawn),1.03
14,CC(C)CNC(N)=S,1.12
15,COC(=O)/C=C/Cn1c(-c2ccccc2)nc2c(c1=O)[C@@H](c1ccccc1)[C@]1(c3ccc(OC)cc3)Oc3cc(OC)cc(OC)c3[C@]21O,1.09
16,COc1ccc([C@@]23Oc4cc(OC)cc(OC)c4[C@]2(O)[C@H](O)[C@H](C(=O)N(C)OC)[C@H]3c2cccc(OC)c2)cc1,0.955
17,COc1cccc(/C=N/N(C(=O)C(F)(F)F)c2ccc(C)cc2C)c1,1.01
18,O=C1C2=C(C(c3ccccc3)=NCCN2)C(c2ccc3c(c2)OCO3)N1Cc1ccccc1 (stereo not drawn),1.04
19,COc1ccc(NS(=O)(=O)N2CCOCC2)cc1,1.08
20,COc1cc2c(cc1OC)C[NH+](CCc1ccc(NC(=O)Cc3ccccc3C)cc1)CC2,1.14
21,Cc1cc2c(c(=O)o1)[C@@]1(C(=O)N(C)c3ccccc31)C1=C(CCCC1=O)O2,1.09

row,Structure (SMILES),growth
1,CCc1ccccc1-n1nc2c(c1C(C)C)C(c1cccc(C(F)(F)F)c1)NC2=O (stereo not drawn),1.03
2,C=C1CC[C@@H]2[C@@H](C(=O)C(C)C)C3=C(O[C@@]2(C)CC[C@@H]2[C@@H]1CC2(C)C)C(C)(C)C(=O)C(C)(C)C3=O,0.895
3,COc1ccc(-c2cnn3c(N)c(-c4ccc(F)cn4)cnc23)cc1,1.14
4,Cc1nn(C)c2c1C(c1ccc3c(c1)OCO3)NC2=O (stereo not drawn),0.955
5,COc1cc(CC=C(C)C)c2c(=O)c3ccc(Cl)cc3oc2c1O,1.21
6,CCNC1=NC(c2ccccc2)C(C(=O)OC)=C(C)N1Cc1ccc(C(F)(F)F)cc1 (stereo not drawn),0.882
7,CC(=O)OC[C@H]1O[C@H](C#Cc2ccc(Br)cc2)C=C[C@H]1OC(C)=O,1
8,CC(C)Cc1n[nH]c2c1C(c1ccc(F)cc1)N(c1ccc(F)cc1)C2=O (stereo not drawn),1.29
9,CC(C)n1cc(Nc2cc(O)cc(O)c2C(=O)N2CC[C@H](F)C2)cn1,1.09
10,O=C(c1c(O)cc(O)cc1Nc1ccnn1C1CCCCC1)N1Cc2ccccc2C1,0.946
11,C=CCN1C(=O)C2=C(C(CC(C)C)=NCCN2C)C1c1cccc(C(F)(F)F)c1 (stereo not drawn),0.942
12,CC(=O)c1cc(Br)c(O)c(Br)c1O,0.883
13,COC(=O)Cc1nnn2c1[C@H](C)[C@H](C(C)(C)C)OCC2,0.979
14,CC(C)c1ccc(Cn2nccc2Nc2cc(O)cc(O)c2C(=O)N2Cc3cn[nH]c3C2)cc1,1.1
15,COc1ccccc1Cn1nc(C)c2c1C(=O)NC2c1ccc(F)cc1 (stereo not drawn),1.08
16,O=c1c(O)c(-c2ccc(Br)cc2)[nH]c2cccc(F)c12,active: 0.0644
17,Cc1nnc(Nc2ccccc2)c2c(C)n(-c3ccccc3)c(C)c12,1.12
18,CCCCS(=O)(=O)N1CCCc2nc(-c3ccc(Br)cc3)ccc21,1
19,COC(=O)C/C=C/[C@H](C)[C@H](NC(=O)C(F)(F)F)c1cccc(OC)c1,0.993
20,Cc1ccc(S(=O)(=O)Oc2c(C[C@@]34CCCCC3=Nc3ccccc34)occc2=O)cc1,1.2
